Source: PMC4336329 (PLoS ONE, 2015)
Screen size: about 310,000 compounds; about 2,200 (0.71%) showed an effect of 50% or more. The effect is printed as a negative number. The list shows a part of the results.

Target: human ether-à-go-go-related gene (hERG) potassium channel (human, UniProt Q12809)
Experiment: primary screen, population patch clamp on CHO cells stably expressing hERG

human ether-à-go-go-related gene (hERG) potassium channel, sequence (Q12809 whole entry, looked up): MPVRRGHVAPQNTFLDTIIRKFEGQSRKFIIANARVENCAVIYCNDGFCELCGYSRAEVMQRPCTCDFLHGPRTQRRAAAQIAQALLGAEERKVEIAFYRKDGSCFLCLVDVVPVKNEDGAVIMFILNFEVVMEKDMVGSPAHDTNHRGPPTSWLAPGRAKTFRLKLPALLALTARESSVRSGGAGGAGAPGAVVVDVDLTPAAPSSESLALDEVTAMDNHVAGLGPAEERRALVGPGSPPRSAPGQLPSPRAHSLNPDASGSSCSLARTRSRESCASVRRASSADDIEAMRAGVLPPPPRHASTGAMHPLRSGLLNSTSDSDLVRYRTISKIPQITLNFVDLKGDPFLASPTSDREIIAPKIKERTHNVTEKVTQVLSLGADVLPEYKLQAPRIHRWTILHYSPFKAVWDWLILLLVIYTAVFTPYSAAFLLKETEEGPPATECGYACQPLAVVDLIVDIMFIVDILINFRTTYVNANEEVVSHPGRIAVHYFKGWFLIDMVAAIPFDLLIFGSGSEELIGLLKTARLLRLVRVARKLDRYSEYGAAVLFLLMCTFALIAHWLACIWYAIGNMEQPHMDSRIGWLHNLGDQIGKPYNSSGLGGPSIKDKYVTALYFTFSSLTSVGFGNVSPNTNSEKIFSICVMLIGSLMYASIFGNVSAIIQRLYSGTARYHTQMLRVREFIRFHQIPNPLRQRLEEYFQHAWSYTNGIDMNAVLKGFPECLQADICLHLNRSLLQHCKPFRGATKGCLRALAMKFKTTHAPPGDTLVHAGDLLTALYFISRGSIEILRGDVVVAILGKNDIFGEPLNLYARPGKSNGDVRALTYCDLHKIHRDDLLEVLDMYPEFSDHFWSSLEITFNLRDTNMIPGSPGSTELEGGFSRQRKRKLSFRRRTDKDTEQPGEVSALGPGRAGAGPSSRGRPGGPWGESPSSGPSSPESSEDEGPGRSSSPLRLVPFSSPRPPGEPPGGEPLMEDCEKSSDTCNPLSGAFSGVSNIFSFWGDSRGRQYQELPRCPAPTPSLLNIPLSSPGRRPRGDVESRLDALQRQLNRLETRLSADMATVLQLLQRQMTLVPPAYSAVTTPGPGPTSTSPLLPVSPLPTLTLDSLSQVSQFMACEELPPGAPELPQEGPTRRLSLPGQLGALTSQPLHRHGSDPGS

Compound | hERG current change (%, negative = inhibition) at 1uM [%]
COCCN(C(=O)COC(=O)CCOc1cccc(C)c1)c1c(N)n(Cc2ccccc2)c(=O)[nH]c1=O | 23.5
C=CCn1c(-c2ccc(OC)c(OC)c2)cs/c1=N\c1ccccn1 | 13.3
CCn1cc(C(=O)c2ccccc2)c2ccccc21 | 2.01
COc1ccccc1C1NC(=O)NC(C)=C1C(=O)OCc1ccccc1 (centres unmarked) | 9.41
CN(CCCC1CCCC1)C(=O)c1cc(COc2ccc(F)cc2F)on1 | 8.03
O=C(OCC(=O)c1cccs1)c1cccc(C(=O)OCC(=O)c2cccs2)n1 | 5.8
Cc1ccc2c(c1)CCCN2CC(=O)Nc1cccc(S(=O)(=O)N2CCCC2)c1 | -0.928
O=C(O)CCC(=O)Nc1ccc(C(=O)N2CCCCC2)cc1 | 23.9
O=[N+]([O-])c1ccc(Cl)c(-c2ccc(/C=N/n3cnnc3)o2)c1 | 11.1
Cc1ccc(-c2csc3nc(SCC(=O)N(C)C)n(Cc4ccccc4)c(=O)c23)cc1 | 8.4
O=C(Nc1ccc(N2CCCCCC2)cc1)c1ccccc1Cl | 24.5
COC(=O)CN(C#N)c1nc(NC(C)C)nc(NC(C)C)n1 | 14.9
CC(C)(C)Nc1nc(N)nc(Cl)n1 | 9.06
CCCCNC(=O)c1ccccc1SCC(=O)NC1CCCCCCC1 | 7.73
CCC(Sc1nc(=O)cc(N)n1-c1ccccc1)C(=O)Nc1cc(C)on1 (centres unmarked) | 17.8
Cc1ccc(N(CC(=O)NC2CCCC2)C(=O)CCC(=O)Nc2ccccn2)cc1C | 9.66
CC(C)=CCN1CCN(Cc2cnc(-c3ccccc3)s2)CC1CCO (centres unmarked) | -3.26
COc1ccc(Br)cc1/C=C/c1ccc2cccc(O)c2n1 | 11
O=C(COC(=O)c1ccc(Cl)cc1Cl)Nc1cccc(S(=O)(=O)NC2=NCCC2)c1 | 1.97

Compound | hERG current change (%, negative = inhibition) at 1uM [%]
CN1C(=O)NC(c2cccc([N+](=O)[O-])c2)C2=C1CC(C)(C)CC2=O (centres unmarked) | 7.83
O=C(CCN1C(=O)C2CCCCC2C1=O)Nc1nc2c(F)cc(F)cc2s1 (centres unmarked) | 13.9
Cl.c1ccc(CN(CC2=NCCN2)c2ccccc2)cc1 | -2.85
CN(C)c1ccc(/C=C/C#N)cc1 | -6.64
CN(C)C(=O)c1ccc(Nc2ncnc3sc4c(c23)CCCCC4)cc1 | 6.54
Cn1cccc1CC(=O)NNC(=S)NC(=O)c1ccc(F)cc1 | 9.41
CCC(C)NC(=O)C1CCN(S(=O)(=O)c2ccc3c(c2)CC(C)N3C(C)=O)CC1 (centres unmarked) | 1.68
COc1ccc(CN2CCC(n3nccc3NC(=O)C3CC3)CC2)c(OC)c1OC | -8.29
CC1=CCC2(CO)COC(c3ccccc3O)C1C2 (centres unmarked) | 2.28
CCCc1nnc(NC(=O)C2CC(=O)N(C3CCCC3)C2)s1 (centres unmarked) | 9.43
CCc1nc(CN(C)C(=O)C2CCC(=O)N(Cc3cccc(F)c3)C2)no1 (centres unmarked) | 9.2
Cc1cc(Br)ccc1S(=O)(=O)n1ccnc1C | 1.01
COc1cccc(C(=O)N/N=C/c2cn[nH]c2-c2ccc(OC)cc2OC)c1 | 8.44
COc1ccccc1C1CC(c2ccc(Cl)cc2)Nc2ncnn21 (centres unmarked) | -15.3
C/C(=N/NC(=O)c1nnn(-c2nonc2N)c1COc1ccccc1)c1ccccc1 | 8.3
Cc1cc(C)n(-c2cccc3cccnc23)n1 | 14.3
CC(=O)c1c(C)oc2ccc(N(C(C)=O)S(=O)(=O)c3ccc(Cl)c([N+](=O)[O-])c3)cc12 | 14
COc1ccc(-c2n[nH]c(=S)n2Cc2ccccc2)cc1 | 8.74
Cc1ccc(C(=O)CSc2n[nH]c(C)n2)cc1 | 7.53

Compound | hERG current change (%, negative = inhibition) at 1uM [%]
Cc1ccc2c(c1)c1c3n2CCN(CC(N)=O)C3CCC1 (centres unmarked) | 15.8
COc1ccc2sc(-c3ccccc3OC)c(-c3ccc4c(c3)OCCO4)c2c1 | 12.9
Cc1noc(C)c1CCC(=O)NC1CCCN(Cc2ccc(CC(C)C)cc2)C1 (centres unmarked) | -37.8
Cc1c(N(CC(=O)O)S(=O)(=O)c2ccccc2)c(=O)n(-c2ccccc2)n1C | 20
COc1ccc(Cc2nnc(NC(=O)c3cccc(C)c3)s2)cc1 | 14
Cc1ccc(-c2noc(CN(C(=O)c3ccc4c(c3)OCO4)C(C)C)n2)cc1 | 13.1
Cc1ccc(NC(=O)c2ccc(S(=O)(=O)N3CCOCC3)cc2)nc1 | -7.41
O=C(NC(NC(=S)Nc1ccccc1C(=O)O)C(Cl)(Cl)Cl)c1cccc([N+](=O)[O-])c1 (centres unmarked) | 11.2
CC(C)c1nc(SCC(=O)c2ccccc2)c2c(=O)n(C)c(=O)n(C)c2n1 | 10.7
COc1ccc2c(COC(=O)CNC(=O)C34CC5CC(CC(C5)C3)C4)cc(=O)oc2c1 | 2
Cc1nc(N2CCOCC2)c2c(C)c(C(=O)Nc3ccccc3Cl)sc2n1 | 8.76
COc1ccc(OC)c(/C=N\NC(=O)CC(=O)NCCc2ccccc2)c1 | 11.7
COCC(C)NC(=S)Nc1ccccc1[N+](=O)[O-] (centres unmarked) | 13.7
CCN(N=O)[C@@H](Cc1ccccc1)CN(N=O)[C@@H](Cc1ccccc1)CN(C)N=O.[Na+] | 13.4
COc1ccc([C@@H](C)NC(=O)c2ccc3oc(C(C)C)nc3c2)cc1 | 45.7
Cc1ccc(NS(=O)(=O)c2ccc(NC(=O)c3cccc(NC(=O)C(C)C)c3)cc2)cc1 | 10.1
O=C(Nc1ccc(S(=O)(=O)N2CCCC2)cc1Cl)C1=COCCO1 | -1.24
CCNC(=O)c1cc(Br)ccc1Cl | 11.9
